Data as given in PMC12136788.
Some of the results follow.

T1: UNK ZnF1-3 (human, UniProt Q9C0B0 31-174)
T1 sequence: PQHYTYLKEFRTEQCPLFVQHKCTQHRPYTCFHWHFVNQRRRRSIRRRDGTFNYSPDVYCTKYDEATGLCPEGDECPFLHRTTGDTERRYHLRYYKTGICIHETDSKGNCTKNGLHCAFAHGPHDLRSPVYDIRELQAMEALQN

B1: chr4:115894766:115894767:+_ENSMUSG00000028698_ENSMUST00000030464|mus_hu|mus_mus_mus_hu_True|58_88 (ssRNA)
RNA: GGGAGUUCUACAGUCCGACGAUCUUCCACACGGAAAUGUACUUCGGGUUUCCAACGGGCCAGUACCAGUCCGGCCAACUACUAGGAACAGGGUCCUCCCCCUCUCUCCUACAGAACACAACAAAAUGCCCCCGAACUUUCAAGCAACAGAGGAUUGAGCAUCA
B2: chr11:30352807:30352808:+_ENSG00000152219_ENST00000282032|hu_hu|FALSE|FALSE (ssRNA)
RNA: GGGAGUUCUACAGUCCGACGAUCCUUCCAACCAGGUACAAGCUGUCUUCCAAAUUUAGCACUCAGAAAAGUGGCAUCAUCUAAGUCAAUUACAUGCAAAUUUUUUUUGGCUAAUUUCUUGUGUAUGUUAAAUGGGUCACAACACAACAGAGGAUUGAGCAUCA
B3: chr14:23562722:23562723:-_ENSG00000100813_ENST00000605057|hu_hu|FALSE|FALSE (ssRNA)
RNA: GGGAGUUCUACAGUCCGACGAUCCUGGCUCAUUUCCUCACCAAUCUGGGAAUUUGGCUGGAAUGCAGCAUGGGGUGUUGAGUGUUUCUGUAAAUUUUCUAGCAUUAGAGCCCCUUUGAGCCGCUUGACCAGGGCACUCUUCUGCAACAGAGGAUUGAGCAUCA
B4: chr2:162251599:162251600:+_ENSG00000115233_ENST00000409682|hu_mus|FALSE|FALSE (ssRNA)
RNA: GGGAGUUCUACAGUCCGACGAUCACAGUGUUCACUGUAGUCCUGAAGUGUCAAUCCUUCCAUCCAACUCUUCUUAUGCAAAUUUAACAGCAUCUUCUGUUCCAGUUCAUUUUUCCGGUAAUUAAUAGUGAUGGAGUAAUAAUGCAACAGAGGAUUGAGCAUCA
B5: chr9:96327448:96327449:+_ENSG00000048828_ENST00000277165|hu_mus|FALSE|FALSE (ssRNA)
RNA: GGGAGUUCUACAGUCCGACGAUCUAGUCACGAGGUUUCAGAACACAUUGUGUUGACUUUGAAAGGUCAUUUGCAUCUUCUAUGAUUUCAACGUAAUCUCCAUUGAACUUGCUUGUAAAGGAUGUAUGAUGUACUGUGUAUUCACAACAGAGGAUUGAGCAUCA
B6: chr14:31821845:31821846:+_ENSMUSG00000021916_ENSMUST00000168584|mus_mus|motif|central (ssRNA)
RNA: GGGAGUUCUACAGUCCGACGAUCGGGAAUCUCCUCUUGCCUCUCACUCACUGGAUGCUGAUGAGCACUGGCGACAAAGUCGGUGGGCUGAAGCCCCACAAUUCCCGAAUCUGAAAUGUCAUUCUUUAACAAACUGCUCAAGCUCAACAGAGGAUUGAGCAUCA
B7: chr9:35104861:35104862:-_ENSG00000005238_ENST00000378566|hu_mus|FALSE|FALSE (ssRNA)
RNA: GGGAGUUCUACAGUCCGACGAUCUGGGGUGAUGCCAAUUAUCAGGUUUGGGAGGUCACCAAGGCAAUCCAAUUUGAAUAAAUUAUAAAUUAAAAAUAAAUAAAAUAAUAAGUGGCCCCUGCCCAGGACAGGGAGGCAACGCUGCAACAGAGGAUUGAGCAUCA
B8: 116164458_116166158_504_CDS_ENSMUSG00000031028_ENSMUST00000033341|mouse|control|control (ssRNA)
RNA: GGGAGUUCUACAGUCCGACGAUCCAGCUGUACACUGGCAAUCGAGUCGGCCUCUUGAACUUGGUAGCUGGUGCUGCCACUGCUGCUGAGGUAGGACUCCACCAGGGGGGCUUGCUCCUCUGACUGCCGGGCUCGCCGACUCCGCAACAGAGGAUUGAGCAUCA
B9: chr1:10037540:10037541:+_ENSMUSG00000056763_ENSMUST00000071087|mus_hu|FALSE|FALSE (ssRNA)
RNA: GGGAGUUCUACAGUCCGACGAUCACCCCUGGUCUGUUGACUAUUUGGUGGUAUGUUUUCCUUAGCCAUAGAGAUCAGUAUCUUACUGUUUUCAGAAAGCUUCGCUGACAACUUUCCCUUCAUUUCCAUGUAAGGUGGAUCACUCAACAGAGGAUUGAGCAUCA
B10: chr10:33221514:33221515:-_ENSG00000150093_ENST00000302278|perfect_dup|FALSE|FALSE (ssRNA)
RNA: GGGAGUUCUACAGUCCGACGAUCAUUUGGCCCUGCUUGUAUACAUUCUCCACAUGAUUUGGCAUUUGCUUUUAAACAUCUAUUUUCAUCUGUUUGAGCAAACACACAGCAAACUGAACUGAUCAGUCCAAUCCAGAAAAUUGGCAACAGAGGAUUGAGCAUCA
B11: chr2:42472670:42472671:+_ENSG00000143924_ENST00000318522|hu_mus|FALSE|FALSE (ssRNA)
RNA: GGGAGUUCUACAGUCCGACGAUCCGUGACUCAAGAGCUGAGAGGCGGUCUUGAACGUCAGAGGUACUUGCAGCAGAAAUACUAUCAUCGAGGCUGCCGGCGAAACCGUCCAUCUUGCGGGGACCGCGCCGGGCUCGGGGCUCACAACAGAGGAUUGAGCAUCA
B12: chr7:7612872:7612873:+_ENSG00000164654_ENST00000405785|hu_hu|motif|central (ssRNA)
RNA: GGGAGUUCUACAGUCCGACGAUCUUUUGUUAAGGGUUUUGGUUGCUCAGUCAAUGUCAAAACUGGCUUCUCAAAUUUUCGGAGAUCCCAUAUUGCAACCUGACCUUCAUAGAAGGAAGCAACACGAUCGUGGAAAUAUGGGUCCAACAGAGGAUUGAGCAUCA
B13: chr3:148802587:148802588:-_ENSG00000071794_ENST00000310053|hu_mus|hu_hu_hu_mus_False|18_18 (ssRNA)
RNA: GGGAGUUCUACAGUCCGACGAUCUCCAACAACUUGUCCUCUCAUAGUUCCAAAUAAAACCAAAUCUUGCUCUUCAUCACUCGUUAGGAAGUCAUCUGGAGGAAUAAUGUCUUGGAAUUCAAAACGUGGCAAGAAAGUUGAGUACAACAGAGGAUUGAGCAUCA
B14: 171544204_171546629_2394_CDS_ENSG00000117523_ENST00000495585|human|control|control (ssRNA)
RNA: GGGAGUUCUACAGUCCGACGAUCGGUCCGAUGUGGUUGUAGAUUUUGUGCUCAAAGAAGAGGUAGUGUAUGUACCAGCUCCUGAUAGUGAUGCUGUAGGAGUGACUGAAGCAACAGGAAUCUGGGGCAUGGAUGCACUUGAGACAACAGAGGAUUGAGCAUCA
B15: chr2:38870607:38870608:+_ENSMUSG00000026755_ENSMUST00000090993|perfect_dup|FALSE|FALSE (ssRNA)
RNA: GGGAGUUCUACAGUCCGACGAUCGUCUUUUUAUUUUUUUUAAACAGUCUUUCUUGCUGUAAGAACUCUUAUAAUGGAGCCUAGUCCUCCUACUGCUAAGGCCUUUUCGUGCCACUGGAGUAACACUGCGCUGCUAUUUUCUGUCAACAGAGGAUUGAGCAUCA
B16: chr1:109605425:109605426:-_ENSG00000197780_ENST00000461096|hu_hu|FALSE|FALSE (ssRNA)
RNA: GGGAGUUCUACAGUCCGACGAUCUAGUCAAGGACACAUUUCCACAAUGAACAAGUACUUACAAAUAUGUUAAUAAAACACUAACCCAAAUGCUUACCCUGCCAUCAGCUUUUUAAACAAUGCCAUUCCUGCUACUGAAAGCAUCAACAGAGGAUUGAGCAUCA
B17: chr8:26196428:26196429:+_ENSG00000221914_ENST00000315985|hu_hu|FALSE|FALSE (ssRNA)
RNA: GGGAGUUCUACAGUCCGACGAUCUUUGUUCUCCUGCUCCUGUUGAAAGAUGACAACUCUACCACCUUUAUCUCCUGUUGCUAGUAAUUCUCCAGAAUGAUUAAAUUCUACUGUAGAAAUUAUAUCUGCUUCUGCUACAUCAUCCAACAGAGGAUUGAGCAUCA
B18: chr1:78444685:78444686:-_ENSG00000162613_ENST00000370768|hu_hu|FALSE|FALSE (ssRNA)
RNA: GGGAGUUCUACAGUCCGACGAUCACCAGCUGAGCCAGAAGAGGGGGGAGGCACUGUUGAAUAGUCUGCCAUGGUUGCACUAUAAGAGCCGCUGCCGCCUGUUCAGAGACUUCCUCUCAGCUAACAGCUAAGAAAGAAAGAAAACAACAGAGGAUUGAGCAUCA
B19: chr16:94664741:94664742:+_ENSMUSG00000040785_ENSMUST00000117648|mus_hu|mus_mus_mus_hu_False|68_98 (ssRNA)
RNA: GGGAGUUCUACAGUCCGACGAUCUGGUACUGAUCUUUGCAUUGGAUAUUCAGGAGAAAGGCUGGCCAAAGGUGUGUAUAUGCUGGUGUACUGGGGCAAACCUGGUAACACGUUUAUGUAUGCUGGCGGUGUCUGGGUGAUAUCCAACAGAGGAUUGAGCAUCA
B20: chr1:244855233:244855234:+_ENSG00000121644_ENST00000302550|hu_mus|hu_hu_hu_mus_True|58_78 (ssRNA)
RNA: GGGAGUUCUACAGUCCGACGAUCCAUCAGAUGGUAGGCGUUGCCCUUAUACUCUUUUCCCAGUUCUUCUACAAUUUUUUCUAUAUCAUCUUCUAGAAAGUCCGUACUUCCUAGAACAACAGCUUCUUUAAAUUUAAAUGUUUCCAACAGAGGAUUGAGCAUCA
B21: chr16:68260615:68260616:+_ENSG00000072736_ENST00000346183|hu_mus|FALSE|FALSE (ssRNA)
RNA: GGGAGUUCUACAGUCCGACGAUCUCUGAGAUAGAGCCUGCUGCAUUCACACUCAAAGCACCCAUCAUAUAAAAGUAUCCUAUUUAAAUAUAUAUAUAUAUAUAUAUAUAUAUAUAUAAAAGCAAAGCUCGUUUCCCACAGCUGCAACAGAGGAUUGAGCAUCA
B22: chr2:47387409:47387410:-_ENSG00000143933_ENST00000272298|hu_mus|FALSE|FALSE (ssRNA)
RNA: GGGAGUUCUACAGUCCGACGAUCCAACUUGGAAUGGAUUUGAGGCAAGUUGUGCCAUGAGCAGGUUUUCUUUAAGUGGCUAAACAAAGUUUAAAAAGCAAGUAACAAUAAAAGAAAAUGUUCCUGGUACAAUACCAGCAGUACCAACAGAGGAUUGAGCAUCA

target: T1, UNK ZnF1-3; assay: nsRBNS (natural sequence RNA bind-n-seq); RBNS binding buffer (assumed for nsRBNS): 25 mM Tris pH 7.5, 150 mM KCl, 3 mM MgCl2, 0.01% Triton X-100, 500 ug/ml BSA, 20 U/ml SUPERase-In, 4 C; UNK is unkempt and MSI1 is Musashi-1; names of the RNAs are library labels; protein concentration not given here; high values mean tight binding

Question: How did the binding signal turn out when B1 was run?
Answer: 1.2 enrichment R

Question: Which binding signal does the source give for B2 here?
Answer: 1.94 enrichment R

Question: With B3 as the binder, how does the binding signal read?
Answer: 1.03 enrichment R

Question: For B4, which binding signal is on record?
Answer: 1.1 enrichment R

Question: How did the binding signal turn out when B5 was run?
Answer: 0.742 enrichment R

Question: With B6 as the binder, how does the binding signal read?
Answer: 1.08 enrichment R

Question: How did the binding signal turn out when B7 was run?
Answer: 1.57 enrichment R

Question: B8 was tested. Which binding signal did it give?
Answer: 0.417 enrichment R

Question: How did the binding signal turn out when B9 was run?
Answer: 0.395 enrichment R

Question: For B10, which binding signal is on record?
Answer: 0.912 enrichment R

Question: B11 was tested. Which binding signal did it give?
Answer: 1.28 enrichment R

Question: How did the binding signal turn out when B12 was run?
Answer: 0.88 enrichment R

Question: B13 was tested. Which binding signal did it give?
Answer: 1.25 enrichment R

Question: How did the binding signal turn out when B14 was run?
Answer: 1.14 enrichment R

Question: For B15, which binding signal is on record?
Answer: 0.657 enrichment R

Question: With B16 as the binder, how does the binding signal read?
Answer: 1.47 enrichment R

Question: Which binding signal does the source give for B17 here?
Answer: 0.983 enrichment R

Question: How did the binding signal turn out when B18 was run?
Answer: 1.38 enrichment R

Question: How did the binding signal turn out when B19 was run?
Answer: 1 enrichment R

Question: For B20, which binding signal is on record?
Answer: 1.41 enrichment R

Question: For B21, which binding signal is on record?
Answer: 2.29 enrichment R

Question: B22 was tested. Which binding signal did it give?
Answer: 0.884 enrichment R
